Laboratory results taken from PMC4336329 (PLoS ONE, 2015).
Out of some 310,000 compounds screened, about 2,200 (0.71%) showed an effect of 50% or more. The effect is printed as a negative number. The list shows a part of the results.

target: human ether-à-go-go-related gene (hERG) potassium channel (human, UniProt Q12809); assay: primary screen, population patch clamp on CHO cells stably expressing hERG
Sequence (Q12809 whole entry, looked up): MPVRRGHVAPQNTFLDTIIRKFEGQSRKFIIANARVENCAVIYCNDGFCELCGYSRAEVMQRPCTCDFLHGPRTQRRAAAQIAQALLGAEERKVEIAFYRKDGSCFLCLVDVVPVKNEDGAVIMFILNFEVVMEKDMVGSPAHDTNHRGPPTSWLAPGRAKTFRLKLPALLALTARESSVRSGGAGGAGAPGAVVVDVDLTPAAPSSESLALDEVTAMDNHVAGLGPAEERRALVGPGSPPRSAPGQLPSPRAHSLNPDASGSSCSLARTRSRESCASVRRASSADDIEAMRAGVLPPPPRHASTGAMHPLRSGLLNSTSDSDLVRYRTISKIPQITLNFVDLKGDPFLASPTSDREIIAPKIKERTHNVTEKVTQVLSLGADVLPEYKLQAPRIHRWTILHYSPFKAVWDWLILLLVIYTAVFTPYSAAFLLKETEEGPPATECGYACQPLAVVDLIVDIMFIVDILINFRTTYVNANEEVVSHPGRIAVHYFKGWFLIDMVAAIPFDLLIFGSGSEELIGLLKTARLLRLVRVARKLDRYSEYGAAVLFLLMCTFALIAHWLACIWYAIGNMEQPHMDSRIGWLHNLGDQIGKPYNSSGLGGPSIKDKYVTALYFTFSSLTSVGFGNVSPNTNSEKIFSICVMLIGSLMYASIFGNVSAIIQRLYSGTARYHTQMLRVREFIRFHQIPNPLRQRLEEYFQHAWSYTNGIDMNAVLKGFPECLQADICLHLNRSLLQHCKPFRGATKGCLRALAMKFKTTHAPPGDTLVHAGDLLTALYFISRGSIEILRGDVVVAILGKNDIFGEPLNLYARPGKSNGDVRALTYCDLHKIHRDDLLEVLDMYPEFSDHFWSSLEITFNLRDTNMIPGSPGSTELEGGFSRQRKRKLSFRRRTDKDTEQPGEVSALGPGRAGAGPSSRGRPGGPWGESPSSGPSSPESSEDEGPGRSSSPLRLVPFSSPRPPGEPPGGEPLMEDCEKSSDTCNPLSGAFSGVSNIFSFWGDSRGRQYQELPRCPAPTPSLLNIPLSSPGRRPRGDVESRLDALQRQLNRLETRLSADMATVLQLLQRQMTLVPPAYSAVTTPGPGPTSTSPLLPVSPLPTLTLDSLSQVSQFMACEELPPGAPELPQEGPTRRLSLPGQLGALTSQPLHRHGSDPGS

Going from `Fc1ccc(C2Nc3cccc4cccc(c34)N2)cc1` to `O=C1CC(c2ccc3ccccc3c2)NN1` (centres unmarked), the “hERG current change (%, negative = inhibition) at 1uM” value falls from 13.2% to 7.6%.

First: COc1cc(COc2ccc(-c3nnco3)cc2)ccc1OC(F)F
Second: CCCc1ccc(OCc2ccc(C(=O)OC)o2)c(OC)c1
The “hERG current change (%, negative = inhibition) at 1uM” value of the first is higher: 22.9% for the first, 0.548% for the second.

Compared with `Cc1csc(NC(=O)CSc2nncc(=O)n2N)n1`, `CC1Cc2nc(SCC(=O)Nc3ccc(F)cc3F)n(C)c(=O)c2S1` (centres unmarked) is lower in “hERG current change (%, negative = inhibition) at 1uM” value: 15.7% for the first, -0.328% for the second.

Compared with `Cc1ccc2c(=O)c(CN3CCCCCC3)c(C)[nH]c2c1C`, `Cc1ccc(Cl)cc1NC1=NC(=S)N(C(C)C)C12CCCCC2` is higher in “hERG current change (%, negative = inhibition) at 1uM” value: 11.3% for the first, 16.2% for the second.

Going from `Cn1c(/C(C#N)=C(\O)c2ccc(S(=O)(=O)N3CCCCC3)cc2)nc2ccccc21` to `CCc1ccc(N2CC(C(=O)Nc3ccc(S(=O)(=O)N4CCCCC4)cc3)CC2=O)cc1` (centres unmarked), the “hERG current change (%, negative = inhibition) at 1uM” value falls from 11.2% to 2.88%.

First: Cc1cc(C)cc(NC(=O)c2cc(C)nn2C)c1
Second: Cc1ccc(-c2ccc(SCC(=O)Nc3nonc3C)nn2)cc1
The “hERG current change (%, negative = inhibition) at 1uM” value of the first is lower: 12.1% for the first, 13.9% for the second.

First: S=C(NC1CCCCC1)N1CCN(Cc2ccccc2Cl)CC1
Second: CCN1CCN(CCNC(=O)c2cn(Cc3ccccc3F)nn2)CC1
The “hERG current change (%, negative = inhibition) at 1uM” value of the first is lower: 9.5% for the first, 12.2% for the second.

First: O=C(NNC(=O)c1cccnc1)c1ccncc1
Second: CCCCNC(=O)Cn1nc(Cc2ccncc2)c2ccccc2c1=O
The “hERG current change (%, negative = inhibition) at 1uM” value of the first is lower: 13.8% for the first, 26.5% for the second.

Going from `CCN1C(=O)C(CC(=O)Nc2ccc(OC)cc2)N(CCCN2CCN(c3ccc(OC)cc3)CC2)C1=S` (centres unmarked) to `CCOC(=O)c1ccc(NC(=O)CC2C(=O)N(c3ccccc3)C(=O)N2CCCOC)cc1` (centres unmarked), the “hERG current change (%, negative = inhibition) at 1uM” value rises from -23% to 3.69%.

Going from `COC(=O)CSc1nc2c(c(-c3ccc(C)o3)c1C#N)CCCC2` to `N#Cc1c(NC2CCCCC2)nc(-c2ccco2)c2c1CCCC2`, the “hERG current change (%, negative = inhibition) at 1uM” value rises from 3.99% to 17.3%.

Going from `C=CCN1C(=O)C(Cc2cccc(Cl)c2)SC1=Nc1ccc(C(=O)O)cc1` (centres unmarked) to `CCN(CC)S(=O)(=O)c1cccc(NC(=O)c2ccc(C#N)cc2)c1`, the “hERG current change (%, negative = inhibition) at 1uM” value falls from 4.34% to 3.29%.

Going from `CC(CNS(=O)(=O)c1ccccc1)(c1ccccc1)N1CCOCC1.Cl` (centres unmarked) to `c1ccc(Nc2nc(NCCN3CCOCC3)nc(Nc3ccccc3)n2)cc1`, the “hERG current change (%, negative = inhibition) at 1uM” value rises from 11.5% to 21.6%.

Compared with `CCOc1ccccc1C(=O)NC(C(=O)Nc1cccc(S(N)(=O)=O)c1)C(C)C` (centres unmarked), `CCOc1ccccc1CNC(=O)c1cc2oc3ccccc3c2n1CC` is lower in “hERG current change (%, negative = inhibition) at 1uM” value: 16% for the first, -0.472% for the second.

First: COc1ccccc1/C=N/NC(=O)CN(C1=NS(=O)(=O)c2ccccc21)c1ccccc1
Second: Cl.O=C(CCN1C(=O)c2ccccc2S1(=O)=O)N1CCN(c2ccccc2)CC1
The “hERG current change (%, negative = inhibition) at 1uM” value of the first is lower: 7.01% for the first, 8.63% for the second.

Going from `Cc1cccc(NC(=O)CCCCCN2C(=O)c3ccccc3C2=O)n1` to `O=C(Cn1ccc2ccccc2c1=O)NCC(=O)Nc1ccc(F)cc1F`, the “hERG current change (%, negative = inhibition) at 1uM” value rises from 2.38% to 14%.

First: CCCCNC(=O)Nc1ccc(C(O)(C(=O)OC)C(F)(F)F)cc1 (centres unmarked)
Second: O=C(COC(=O)C1CCN(c2ccc(C(F)(F)F)cn2)CC1)Nc1ccc(Cl)cc1
The “hERG current change (%, negative = inhibition) at 1uM” value of the first is lower: -2.2% for the first, 3.73% for the second.

Compared with `O=C(O)C[C@@H](O)C(=O)O`, `Nc1nonc1NC(=O)CSc1ncccc1C(=O)O` is lower in “hERG current change (%, negative = inhibition) at 1uM” value: 16.7% for the first, 11.8% for the second.

Going from `CC1CCCCN1CCCNc1c(C=O)c(=O)[nH]c2ccccc12` (centres unmarked) to `Cn1c2ccccc2c2ncn(CCC3=CCCCC3)c(=O)c21`, the “hERG current change (%, negative = inhibition) at 1uM” value falls from 10.1% to 8.44%.

First: CC(=O)CSc1nc2ccc(Nc3nc(N4CCOCC4)nc(N4CCOCC4)n3)cc2s1
Second: O=C(CCCc1nc2ccccc2s1)N1CCN(c2ccccc2F)CC1
The “hERG current change (%, negative = inhibition) at 1uM” value of the first is higher: 17.3% for the first, -2.81% for the second.

Going from `COc1ccc2c(c1)O/C(=C\c1ccco1)C2=O` to `Cc1ccccc1NC(=O)COc1ccc2c(c1)OC(C)(C)CC2=O`, the “hERG current change (%, negative = inhibition) at 1uM” value rises from 0.56% to 13.8%.

Compared with `O=C(COC(=O)CNS(=O)(=O)c1ccccc1)NC12CC3CC(CC(C3)C1)C2`, `O=C(COC(=O)CNC(=O)c1ccco1)NCc1ccc(F)cc1` is higher in “hERG current change (%, negative = inhibition) at 1uM” value: -11.1% for the first, 10.4% for the second.

Compared with `Cc1nsc(Nc2ccccc2)c1C#N`, `CCOC(=O)c1nn(-c2ccccc2)c(=O)cc1SC(C)CC` (centres unmarked) is higher in “hERG current change (%, negative = inhibition) at 1uM” value: 4.98% for the first, 15.9% for the second.

Going from `CCOc1ccc2[nH]c(=O)c(CN(CCc3ccccc3)C(=O)N3CCOCC3)cc2c1` to `CCOc1ccc(Cc2n[nH]c(=S)n2Cc2ccccc2)cc1`, the “hERG current change (%, negative = inhibition) at 1uM” value rises from 0.203% to 8.61%.

Going from `COc1ccc(C(C)=O)cc1CSc1nnc(C)s1` to `COc1ccc(C(=O)Nc2ccc3nc4n(c(=O)c3c2)CCCC4)cc1[N+](=O)[O-]`, the “hERG current change (%, negative = inhibition) at 1uM” value falls from 14.7% to 13.7%.

Going from `O=C1C2CC=C(Cl)CC2C(=O)N1CCc1c[nH]c2ccccc12` (centres unmarked) to `O=C1CC(N2CCC(c3nc4ccccc4[nH]3)CC2)C(=O)N1c1cccc(F)c1` (centres unmarked), the “hERG current change (%, negative = inhibition) at 1uM” value falls from 8.44% to -1.4%.

First: C/C(=N\Nc1ncc(Cl)cc1Cl)c1cccs1
Second: Clc1ccc(-c2csc(N/N=C/c3ccco3)n2)cc1
The “hERG current change (%, negative = inhibition) at 1uM” value of the first is lower: 3.47% for the first, 11.8% for the second.

Going from `COc1ccc(-c2noc3c2-c2nc(-c4ccccc4Cl)sc2CC3)cc1` to `Cc1onc(-c2ccccc2Cl)c1C(=O)N1CCN(c2cccc(Cl)c2)CC1`, the “hERG current change (%, negative = inhibition) at 1uM” value falls from 10.9% to 10.7%.

First: CCOc1cccc(Oc2ncccc2C(=O)/C(C#N)=C/N(C)C)c1
Second: CN(C)S(=O)(=O)c1ccc(Cl)c(C(=O)OCC(=O)NC(=O)c2cccn2C)c1
The “hERG current change (%, negative = inhibition) at 1uM” value of the first is higher: 21.9% for the first, 6.7% for the second.

First: COc1ccc2c(c1OC)C(=O)OC2Nc1nc(-c2cccc([N+](=O)[O-])c2)cs1 (centres unmarked)
Second: CCc1ccc(N=C2NC(=O)/C(=C/c3cc(Br)c(OCC(=O)O)c(OC)c3)S2)cc1
The “hERG current change (%, negative = inhibition) at 1uM” value of the first is higher: 15.4% for the first, 1.15% for the second.

Going from `CCOC(=O)N1CCN(c2c(N3CCN(c4ccc(OC)cc4)CC3)c(=O)c2=O)CC1` to `Cc1cccc(N2CCN(C(=O)Cn3cnc4c3c(=O)n(C)c(=O)n4C)CC2)c1C`, the “hERG current change (%, negative = inhibition) at 1uM” value rises from -13.3% to -1.92%.

Compared with `CCOC(=O)c1c(C)[nH]c(C)c1S(=O)(=O)NCCc1ccc(SC)cc1`, `CC(C)OCCCNC(=O)c1ccc(CS(=O)(=O)Cc2ccccc2F)o1` is lower in “hERG current change (%, negative = inhibition) at 1uM” value: 16.8% for the first, 4.44% for the second.

Going from `O=C(Nc1ccc(Cl)c(Cl)c1)NC1CCS(=O)(=O)C1` (centres unmarked) to `COC(=O)Nc1ccc(S(=O)(=O)NC2CCCCC2)cc1`, the “hERG current change (%, negative = inhibition) at 1uM” value rises from 12.8% to 19.4%.

Going from `CCSc1nc(=S)cc(C)[nH]1` to `CCN(CC)c1ccc(N=Cc2c(O)[nH]c(=O)[nH]c2=O)cc1`, the “hERG current change (%, negative = inhibition) at 1uM” value rises from 4.66% to 11.7%.

Compared with `Cc1ccc(C(O)(c2ccccc2)c2ccccc2C(C)N(C)C)c(C)c1` (centres unmarked), `Cc1ccc(NC(=O)CSc2nc3ccccc3c3nc(CCn4cncc4C)nn23)c(C)c1` is higher in “hERG current change (%, negative = inhibition) at 1uM” value: 9.73% for the first, 12.3% for the second.

Compared with `CCOC(=O)c1sc2ncn(C(CC)C(=O)OCC)c(=O)c2c1C` (centres unmarked), `CC(C(=O)O)n1cnc2sc3c(c2c1=O)CCCC3` (centres unmarked) is lower in “hERG current change (%, negative = inhibition) at 1uM” value: 10.7% for the first, 0.243% for the second.

Compared with `NC(=O)CC(NC(=O)c1cccc(Br)c1)c1ccc(NC2CCCCCCCCCCC2)c([N+](=O)[O-])c1` (centres unmarked), `NC(=O)c1ccc(NCC2COc3ccccc3O2)c([N+](=O)[O-])c1` (centres unmarked) is lower in “hERG current change (%, negative = inhibition) at 1uM” value: 10.1% for the first, 8.17% for the second.

Going from `CCn1c(SCC(=O)Nc2ccc(C)cc2)nc2sc3c(c2c1=O)CCN(C)C3` to `CCn1c(SCC(=O)N2CCCCC2)nc2c1c(=O)n(C)c(=O)n2C`, the “hERG current change (%, negative = inhibition) at 1uM” value rises from 10.5% to 12.5%.

Compared with `O=C(NCc1ccc(Cl)s1)C1CCC(=O)N(CCc2cccc(F)c2)C1` (centres unmarked), `Cc1ccc(-n2ccnc(SCC(=O)NCCc3ccccc3)c2=O)cc1F` is higher in “hERG current change (%, negative = inhibition) at 1uM” value: -44% for the first, 16.1% for the second.

First: CCOc1ccccc1NC(=O)C1C2C=CC(O2)C1C(=O)O (centres unmarked)
Second: CC1CCN(S(=O)(=O)c2ccc(C(=O)Nc3ccccn3)cc2)CC1
The “hERG current change (%, negative = inhibition) at 1uM” value of the first is higher: 11.4% for the first, 4.4% for the second.

Going from `Cc1ccc(C(=O)CCS(=O)(=O)c2ccc(Br)cc2)cc1` to `COC(=O)c1ccc(CNC(=O)CN(CCC(C)C)S(=O)(=O)c2ccc3c(c2)OCCO3)cc1`, the “hERG current change (%, negative = inhibition) at 1uM” value falls from 8.49% to -1.72%.

Compared with `NC(=O)[C@@H]1CCCCNc2c(F)cc([N+](=O)[O-])cc2C(=O)N[C@@H](CC(=O)O)C(=O)NCC(=O)N1`, `O=C(NCc1cn(-c2ccccc2)nc1-c1ccccc1)c1cc([N+](=O)[O-])cc([N+](=O)[O-])c1` is higher in “hERG current change (%, negative = inhibition) at 1uM” value: 7.87% for the first, 10% for the second.

First: COc1ccc(CCNC(=O)c2ccc3c(c2)OCCO3)cc1
Second: COc1cc2c(C(=O)NCCCN3CCN(c4cccc(Cl)c4)CC3)cn(C)c(=O)c2cc1OC
The “hERG current change (%, negative = inhibition) at 1uM” value of the first is higher: 5.71% for the first, -6.52% for the second.

First: CN1CCC(=O)N([C@H](CO)Cc2ccccc2)CC1
Second: O=C(Nc1ccccn1)C1(c2cccs2)CCOCC1
The “hERG current change (%, negative = inhibition) at 1uM” value of the first is lower: 6.48% for the first, 7.28% for the second.

Going from `COc1cc(OC)c(-n2cc(-c3ccc(OC)c(OC)c3)[nH]c2=S)cc1Cl` to `Cn1cc(C(=O)N/N=C/c2cc(Br)cs2)c2ccccc21`, the “hERG current change (%, negative = inhibition) at 1uM” value rises from 12.6% to 13.8%.

For `CC1(C)N([O-])c2cc([N+](=O)[O-])ccc2[N+]1=O.NO`, the “hERG current change (%, negative = inhibition) at 1uM” value was 12.6%.
